# Measured values from PubChem BioAssay AID485344 (National Center for Advancing Translational Sciences (NCATS), 2010).
# About 6,900 (2%) of roughly 340,000 compounds were called active. Rule as the data show it: active = inhibition above about 30%; inactive = below that, where a call was filed. The entries are a selection whose mix differs from that of the whole data set. Where no call is shown, the source filed none. Some structures have more than one record in an assay (separate samples or runs), and their calls can disagree.
# Biological target: D(2) dopamine receptor (Homo sapiens) (UniProt P14416)
# Assay: HTS Assay for Allosteric Antagonists of the Human D2 Dopamine Receptor: Primary Screen for Antagonists; also: 0% is about no effect
# Settings: HEK293 TREx D2 cells, calcium flux, dopamine EC80; at 10 µM; stronger effect = higher value
# In short: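 Inhibition of EC80 dopamine-driven calcium flux, recorded kinetically, defines activity here; cells are a tetracycline-induced HEK293 T-REx line expressing force-coupled D2.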
# UniProt P14416, sequence (P14416 whole entry, looked up): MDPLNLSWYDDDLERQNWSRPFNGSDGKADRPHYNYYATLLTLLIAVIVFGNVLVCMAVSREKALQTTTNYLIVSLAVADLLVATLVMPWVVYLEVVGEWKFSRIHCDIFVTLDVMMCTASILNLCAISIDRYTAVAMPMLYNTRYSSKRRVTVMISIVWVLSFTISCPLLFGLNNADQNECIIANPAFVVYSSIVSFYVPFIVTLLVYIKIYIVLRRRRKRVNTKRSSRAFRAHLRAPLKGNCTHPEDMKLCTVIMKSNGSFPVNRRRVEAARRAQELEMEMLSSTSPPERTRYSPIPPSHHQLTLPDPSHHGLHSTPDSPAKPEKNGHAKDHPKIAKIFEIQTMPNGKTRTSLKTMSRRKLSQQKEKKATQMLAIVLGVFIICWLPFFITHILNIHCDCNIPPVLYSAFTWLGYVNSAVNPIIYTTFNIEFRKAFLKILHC
row,SMILES,inhibition
1,Cn1nnnc1SCCNCc1ccc(OCc2ccccc2Cl)cc1,-5.58%
2,O=C(COc1ccccc1)NCc1ccc2c(c1)CCN2C(=O)c1ccccc1,1.45%
3,Cc1ccc(N(C)S(=O)(=O)c2ccc3[nH]c4c(c3c2)CCCC4)cc1,-9.14%
4,Cc1cc(Sc2ccc(Cl)cc2)nc2ccccc12,6.5%
5,O=C(CSc1ccccc1)NCc1ccc2c(c1)CCN2C(=O)c1ccc(Cl)cc1,-26%
6,O=C(Nc1cccc(Cl)c1)c1cc(-c2ccc3c(c2)OCCO3)on1,-1.8%
7,Cc1nnc(N2CCCC(C(=O)Nc3cccc(C(F)(F)F)c3)C2)c2nn(-c3ccccc3)c(C)c12 (configuration not stated),-8.3%
8,Cc1cccc(C(=O)Nc2cccc(OCc3cc(=O)n4cccc(C)c4n3)c2)c1,5.75%
9,Cc1cccc(N(C)C(CNS(=O)(=O)c2ccccc2)c2ccccc2)c1 (configuration not stated),-1.31%
10,CCN(CC)CCNC(=O)C(=O)NCC(c1cccnc1)N1CCN(c2ccccc2)CC1 (configuration not stated),20.3%
11,Cc1ccc(C)c(Nc2nc(-c3ccccc3)c3cc(Br)ccc3n2)c1,-5.99%
12,COc1ccc(CCNC(=O)CCCCn2c(=O)c3ccccc3n(CC(=O)Nc3ccc(C)cc3C)c2=O)cc1OC,-8.12%
13,O=C(COc1ccccc1)NCCc1csc(-c2cccc(F)c2)n1,-3.83%
14,COC(=O)c1cccc(Cn2nnc3sc4c(c3c2=O)CCC(C(C)(C)C)C4)c1 (configuration not stated),5.23%
15,CCN1C(=O)C(Cc2nc3ccccc3c(=O)n2-c2ccc(OC)cc2)c2cc(C)ccc21 (configuration not stated),-4.2%
16,N#Cc1cccc(NC(=O)Cn2nc(Cc3ccncc3)c3ccccc3c2=O)c1,-17.1%
17,COc1ccc(-c2cc3c(=O)n(CC(=O)Nc4ccc(Br)c(C)c4)ccn3n2)cc1OC,-4.48%
18,Cc1cc(S(=O)(=O)Nc2cc3c(cc2NCc2ccccc2)n(C)c(=O)n3C)ccc1F,-15.1%
19,O=C(CSCc1ccc(F)cc1)N1CCc2c([nH]c3ccccc23)C1c1ccc(F)cc1 (configuration not stated),-7.58%
20,O=C(CCn1c(=O)c2cccn2c2cccnc21)Nc1ccccc1Br,-3.62%
21,Cc1cccc(NC(=O)CSc2nnc3[nH]c(=O)cc(C)n23)c1C,19.5%
22,CC(C)(C)c1ccc(-c2cn(-c3ccc(Br)cc3)c3[n+]2CCCS3)cc1,active: 41.8%
23,CC(C)Oc1ccc(C2CC(=O)N(c3ccc(N(C)C)cc3)C2=O)cc1 (configuration not stated),active: 34%
24,CCc1ccccc1NC(=O)CSc1nc(C)c(C(=O)Nc2ccccc2)c(-c2ccc(Cl)cc2)c1C#N,-5.35%
25,Cc1ccc(NC(=O)C2CCN(S(=O)(=O)c3cccc4nonc34)CC2)c(Cl)c1,-6.05%

row,SMILES,inhibition
1,CCOC(=O)c1c(C)[nH]c(C)c1S(=O)(=O)N1CCC(C(=O)NCc2cccc(C)c2)CC1,-11.1%
2,O=C(Nc1ccc(-c2nc3ccccc3s2)c(O)c1)c1ccc(Br)cc1,-0.605%
3,Cc1nn(S(=O)(=O)c2ccc(F)cc2)c(C)c1S(=O)(=O)N1CCCCC1,-9.84%
4,COc1ccc(NC(=O)CSc2c3c(nc4ccccc24)CCC3)cc1Cl,-12.1%
5,CC(C)(C)C(=O)Nc1nnc2n1CCS2,4.49%
6,Cc1ccc2c(c1)N(C(=O)CCC(=O)Nc1ccc(F)cc1F)CC(C)O2 (configuration not stated),16.9%
7,CCOc1ccccc1N(C)C(=O)c1cc(S(=O)(=O)NCCc2ccc(Cl)cc2)ccc1F,-2.96%
8,CCOc1ccc(NC(=O)c2ccc3c(c2)nnn3C2CCCC2)cc1,-6.75%
9,CCN(CC)S(=O)(=O)c1ccc(NC(=O)c2ccc3c(=O)n4c(nc3c2)CCCCC4)cc1,-8.53%
10,Cc1ccccc1CNC(=O)CCc1cn(Cc2ccccc2C)c2ccccc12,12.5%
11,CC(C)(C)c1ccc(C(=O)N2CCC(c3noc(-c4ccc(S(=O)(=O)N5CCCC5)cc4)n3)CC2)cc1,1.67%
12,O=C(Nc1cc(C(F)(F)F)ccc1Cl)c1cc(-c2cccs2)nc2ccccc12,-6.18%
13,Cc1cc(C)c(S(=O)(=O)NCCc2sc(-c3cccnc3)nc2C)c(C)c1,-12.2%
14,Cc1cc(S(=O)(=O)Nc2cc3c(cc2Cl)n(C)c(=O)c(=O)n3C)ccc1F,-1.91%
15,Cc1ncc(C[n+]2csc(CCO)c2C)c(N)n1,active: 67.8%
16,Cn1c(=O)c2cc(C(=O)N3CCN(c4cccc(C(F)(F)F)c4)CC3)sc2c2ccccc21,-7.42%
17,Cc1c(Cl)cccc1NC(=O)C1CCCN(C(=O)c2cnn(-c3ccccc3)c2-n2cccc2)C1 (configuration not stated),3.22%
18,COc1ccc(NC(=O)C(=O)NCCN2CCN(C(=O)c3ccc(C)cc3)CC2)cc1,active: 46%
19,O=C(Nc1nc2ccc(F)cc2s1)c1nc(SCc2ccccc2F)ncc1Cl,-11.1%
20,O=C(CN1C(=O)COc2ccc(S(=O)(=O)N3CCOCC3)cc21)Nc1ccc(F)c(Cl)c1,-5.4%
21,O=C(Nc1nc2c(F)cc(F)cc2s1)c1ccc2c(c1)OCCO2,-6.76%
22,COc1cc(OC)c(N(C)C(=O)c2cn(C)c(=O)c3cc(OC)c(OC)cc23)cc1Cl,2.54%
23,CCOc1cccc(CN2CCCC(C(=O)c3cc(Cl)ccc3OC)C2)c1O (configuration not stated),active: 65.6%
24,O=C(NCCc1ccc(Cl)cc1)C(=O)NCC(c1ccc2c(c1)OCO2)N1CCOCC1 (configuration not stated),-14.3%
25,Cc1ccc(C)c(N2CCN(S(=O)(=O)c3ccc(-c4cc(C(F)(F)F)on4)s3)CC2)c1,-2.51%

row,SMILES,inhibition
1,CS(=O)(=O)N(CC(=O)NCc1ccccc1)C1CCCCC1,active: 36.9%
2,O=C1C2CCCCN2C(=O)N1CCCCN1CCN(c2cccc(Cl)c2)CC1 (configuration not stated),active: 91.7%
3,Cc1ccc(NC(=O)C[n+]2cc(-c3ccccc3)n3c2CCC3)cc1,active: 56.1%
4,CCOc1ccc(NC(=O)CSc2ncn[nH]2)cc1,-14.4%
5,CCOC(=O)c1cc(-c2ccc(OC)cc2)n(CCC(=O)NCc2ccccc2OC)c1C,-5.92%
6,CCOc1ccc(N2CC(C(=O)N3CCCc4ccccc43)CC2=O)cc1 (configuration not stated),active: 55.8%
7,Cc1ccsc1CN(Cc1ccco1)C(=O)c1ccc(Cl)cc1,2.54%
8,Cc1c(C(=O)Nc2ccc(F)cc2F)oc2ccc3c(c12)C(=O)CC(C)(C)O3,-0.963%
9,Cn1ncc2c(NCc3ccc(Cl)cc3)ncnc21,10.8%
10,COc1ccc(CCNC(=O)c2cnc3ccc(C)cn3c2=O)cc1OC,11.9%
11,CC(C)OCCCNc1sc(S(=O)(=O)c2ccccc2)nc1S(=O)(=O)c1ccc(Cl)cc1,-23.2%
12,CCC(=O)Nc1ccc2c(c1)nc(CCN1CCN(c3ccccn3)CC1)n2C,active: 57%
13,CCOc1ccccc1NC(=O)CSc1nc2c(oc3ccccc32)c(=O)n1C(C)C,-1.18%
14,CCOc1ccccc1NC(=O)Cn1cnc2c1c(=O)n(C)c(=O)n2C,0.731%
15,COc1ccc(N2CC3=C(C2=O)C(c2ccc(O)c(OC)c2)NC(=O)N3C)cc1 (configuration not stated),-3.94%
16,CCOC(=O)c1ccccc1NC(=O)c1cc2c(s1)-c1c(C)cccc1OC2,-5.48%
17,Cc1ccc(CNC(=O)c2c(O)nc3ccccn3c2=O)cc1,6.63%
18,Cc1ccc(Cn2c(=O)n(CC3CCC(C(=O)N4CCC(C)CC4)CC3)c(=O)c3sccc32)cc1 (configuration not stated),-4.6%
19,Cc1ccc(N(Cc2cccs2)C(=O)Nc2cccc(Cl)c2)cc1,2.58%
20,Cc1c(Cl)cccc1NC(=O)NCc1c(-n2cccc2)sc2c1CCCC2,26.5%
21,Cc1oc2c(c1C(=O)Nc1ccccc1Br)C1=NCCN1C=N2,-4.61%
22,COc1cccc(CNC(=O)c2sc3nc4n(c(=O)c3c2C)CCC4)c1,2.56%
23,O=C(NCCc1cccs1)c1ccc(Cn2c(SCc3ccccc3)nc3cccnc32)cc1,15.5%
24,COc1cc(C(CC(=O)Nc2ccc(Br)cn2)N2Cc3ccccc3C2=O)cc(OC)c1OC (configuration not stated),4.23%
25,O=C(COC(=O)C1C2CC3OC(=O)C1C3C2)Nc1ccccc1 (configuration not stated),active: 69.5%

row,SMILES,inhibition
1,Cc1c(C(=O)Nc2cccc(F)c2)oc2c1-c1nn(Cc3c(F)cccc3Cl)cc1CC2,-16.3%
2,COc1cccc(C(c2sc3nc(-c4ccco4)nn3c2O)N2CCOCC2)c1 (configuration not stated),-21.2%
3,COc1ccc(NC(=O)CSc2nnc(-c3ccc(OC)cc3)s2)cc1,7.92%
4,Cc1ccc(Nc2nc3ccc(C)cc3nc2-n2nc(C)cc2C)c(C)c1,5.01%
5,CCOC(=O)C(C)(C)Sc1nc2c(cnn2-c2ccc(C)cc2)c(=O)[nH]1,active: 47.8%
6,CC(C)C(=O)Nc1nnc(S(=O)(=O)N2CCCCCC2)s1,13.5%
7,COc1ccc(Cl)cc1NC(=O)CN(C)C(=O)CCC(=O)c1cc(C)sc1C,active: 62.5%
8,COCCNC(=O)C1CCC(CNS(=O)(=O)c2ccc3c(c2)CC(C)N3C(C)=O)CC1 (configuration not stated),9.61%
9,O=C(C1COc2ccccc2O1)N1CCN(c2nc3c(F)cccc3s2)CC1 (configuration not stated),-11.3%
10,COc1ccc(N(CC(=O)NCc2ccccc2Cl)S(=O)(=O)c2c(C)[nH]c(=O)[nH]c2=O)cc1,0.259%
11,Cc1cc(C)c(S(=O)(=O)NCCc2cc3cc(C)c(C)cc3[nH]c2=O)c(C)c1,15.2%
12,Cc1ccc(NC(=O)NCc2ccccn2)cc1,active: 59.3%
13,O=S(=O)(NCCc1nnc2ccc(SCc3ccc(C(F)(F)F)cc3)nn12)c1ccccc1,1.3%
14,Cc1oc2ccc(O)c(CN3CCN(Cc4ccccc4)CC3)c2c1C(=O)Nc1ccccc1,-2.38%
15,COc1cccc(OC)c1OCC(O)CN1CCN(c2ccccc2F)CC1 (configuration not stated),active: 85.7%
16,CN(C)c1ccc(CNC(=O)CN2C(=O)c3cccnc3Oc3ccc(Cl)cc32)cc1,-13.9%
17,CN(C)CCN(Cc1cc2cc3c(cc2[nH]c1=O)OCCO3)C(=S)NCC1CCCO1 (configuration not stated),active: 40.8%
18,N#Cc1ccccc1Cn1c(=O)n(CCCC(=O)NCc2ccc3c(c2)OCO3)c(=O)c2sccc21,-11.5%
19,Cc1ccc(NC(=O)C2CCCN(c3nnc(-n4c(C)ccc4C)s3)C2)c(C)c1 (configuration not stated),2.81%
20,CCCC(C(=O)NCc1cccc(Cl)c1)N1Cc2ccccc2C1=O (configuration not stated),-1.22%
21,CCCN(CCC)C(=O)Cn1c(=O)n(-c2cccc(OC)c2)c(=O)c2c3c(sc21)CCCC3,15%
22,Cc1ccn2c(=O)cc(COc3ccc(NC(=O)COc4ccc(Cl)cc4)cc3)nc2c1,-5.13%
